Reference: the supplement of paper PMC8728848
The list shows a part of the results.

Assays:
Assay in all cases: glycan array binding signal (z-score within array); higher = stronger binding
Conditions in all cases: glycan notation: IUPAC condensed, linker removed
Fuc(a1-2)Gal = biological target: Fuc(a1-2)Gal
Summary of the method: (§1)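 The binding signal is a Z-score computed within each array. Data were drawn from 3228 arrays in the Consortium for Functional Glycomics database, restricted to those with a known protein sequence. Scores were averaged over arrays of the same protein sequence at different concentrations or buffers, and over linkers, and negative values can be taken as non-binding.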

Fuc(a1-2)Gal(b1-3)GalNAc = biological target: Fuc(a1-2)Gal(b1-3)GalNAc
Summary of the method: as §1

[1] = biological target: Fuc(a1-2)Gal(b1-3)GalNAc(a1-3)[Fuc(a1-2)]Gal(b1-4)Glc
Summary of the method: as §1

[2] = biological target: Fuc(a1-2)Gal(b1-3)GalNAc(a1-3)[Fuc(a1-2)]Gal(b1-4)GlcNAc
Summary of the method: as §1

[3] = biological target: Fuc(a1-2)Gal(b1-3)GalNAc(b1-3)Gal
Summary of the method: as §1

[4] = biological target: Fuc(a1-2)Gal(b1-3)GalNAc(b1-3)Gal(a1-4)Gal(b1-4)Glc
Summary of the method: as §1

[5] = biological target: Fuc(a1-2)Gal(b1-3)GalNAc(b1-4)[Neu5Ac(a2-3)]Gal(b1-4)Glc
Summary of the method: as §1

Fuc(a1-2)Gal(b1-3)GlcNAc = biological target: Fuc(a1-2)Gal(b1-3)GlcNAc
Summary of the method: as §1

[6] = biological target: Fuc(a1-2)Gal(b1-3)GlcNAc(b1-2)Man(a1-3)[Fuc(a1-2)Gal(b1-3)GlcNAc(b1-2)Man(a1-6)]Man(b1-4)GlcNAc(b1-4)GlcNAc
Summary of the method: as §1

[7] = biological target: Fuc(a1-2)Gal(b1-3)GlcNAc(b1-2)Man(a1-3)[Fuc(a1-2)Gal(b1-3)GlcNAc(b1-2)Man(a1-6)]Man(b1-4)GlcNAc(b1-4)[Fuc(a1-6)]GlcNAc
Summary of the method: as §1

[8] = biological target: Fuc(a1-2)Gal(b1-3)GlcNAc(b1-3)Gal(b1-4)Glc
Summary of the method: as §1

[9] = biological target: Fuc(a1-2)Gal(b1-3)GlcNAc(b1-3)GalNAc
Summary of the method: as §1

[10] = biological target: Fuc(a1-2)Gal(b1-3)GlcNAc(b1-3)[Fuc(a1-2)Gal(b1-3)GlcNAc(b1-6)]GalNAc
Summary of the method: as §1

[11] = biological target: Fuc(a1-2)Gal(b1-3)GlcNAc(b1-3)[Gal(b1-4)GlcNAc(b1-6)]Gal(b1-4)Glc
Summary of the method: as §1

[12] = biological target: Fuc(a1-2)Gal(b1-3)GlcNAc(b1-3)[Neu5Ac(a2-6)Gal(b1-4)GlcNAc(b1-6)]Gal(b1-4)Glc
Summary of the method: as §1

[13] = biological target: Fuc(a1-2)Gal(b1-3)GlcNAc6S
Summary of the method: as §1

[14] = biological target: Fuc(a1-2)Gal(b1-3)[Fuc(a1-4)]GlcNAc
Summary of the method: as §1

[15] = biological target: Fuc(a1-2)Gal(b1-3)[Fuc(a1-4)]GlcNAc(b1-2)Man(a1-3)[Fuc(a1-2)Gal(b1-3)[Fuc(a1-4)]GlcNAc(b1-2)Man(a1-3)]Man(b1-4)GlcNAc(b1-4)GlcNAc
Summary of the method: as §1

[16] = biological target: Fuc(a1-2)Gal(b1-3)[Fuc(a1-4)]GlcNAc(b1-2)Man(a1-3)[Fuc(a1-2)Gal(b1-3)[Fuc(a1-4)]GlcNAc(b1-2)Man(a1-6)]Man(b1-4)GlcNAc(b1-4)[Fuc(a1-6)]GlcNAc(b1-4)[Fuc(a1-6)]GlcNAc
Summary of the method: as §1

[17] = biological target: Fuc(a1-2)Gal(b1-3)[Fuc(a1-4)]GlcNAc(b1-3)[Fuc(a1-3)[Gal(b1-4)]GlcNAc(b1-6)]Gal(b1-4)Glc
Summary of the method: as §1

[18] = biological target: Fuc(a1-2)Gal(b1-3)[Fuc(a1-4)]GlcNAc(b1-3)[Gal(b1-4)GlcNAc(b1-6)]Gal(b1-4)Glc
Summary of the method: as §1

[19] = biological target: Fuc(a1-2)Gal(b1-4)Fuc(a1-3)]GlcNAc(b1-2)Man(a1-3)[Fuc(a1-2)Gal(b1-4)[Fuc(a1-3)]GlcNAc(b1-2)Man(a1-6)]Man(b1-4)GlcNAc(b1-4)GlcNAc
Summary of the method: as §1

Fuc(a1-2)Gal(b1-4)Glc = biological target: Fuc(a1-2)Gal(b1-4)Glc
Summary of the method: as §1

Fuc(a1-2)Gal(b1-4)Glc6S = biological target: Fuc(a1-2)Gal(b1-4)Glc6S
Summary of the method: as §1

Fuc(a1-2)Gal(b1-4)GlcNAc = biological target: Fuc(a1-2)Gal(b1-4)GlcNAc
Summary of the method: as §1

[20] = biological target: Fuc(a1-2)Gal(b1-4)GlcNAc(b1-2)Man
Summary of the method: as §1

[21] = biological target: Fuc(a1-2)Gal(b1-4)GlcNAc(b1-2)Man(a1-3)[Fuc(a1-2)Gal(b1-4)GlcNAc(b1-2)Man(a1-6)]Man(b1-4)GlcNAc(b1-4)GlcNAc
Summary of the method: as §1

[22] = biological target: Fuc(a1-2)Gal(b1-4)GlcNAc(b1-2)Man(a1-3)[Fuc(a1-2)Gal(b1-4)GlcNAc(b1-2)Man(a1-6)]Man(b1-4)GlcNAc(b1-4)[Fuc(a1-6)]GlcNAc
Summary of the method: as §1

[23] = biological target: Fuc(a1-2)Gal(b1-4)GlcNAc(b1-2)[Fuc(a1-2)Gal(b1-4)GlcNAc(b1-4)]Man(a1-3)[Fuc(a1-2)Gal(b1-4)GlcNAc(b1-2)Man(a1-6)]Man(b1-4)GlcNAc(b1-4)GlcNAc
Summary of the method: as §1

[24] = biological target: Fuc(a1-2)Gal(b1-4)GlcNAc(b1-3)Gal(b1-4)GlcNAc
Summary of the method: as §1

B1: DC-ASGPR L+GEE (Homo sapiens) (protein)
chain: MTRTYENFQYLENKVKVQGFKNGPLPLQSLLQRLRSGPCHLLLSLGLGLLLLVIICVVGFQNSKFQRDLVTLRTDFSNFTSNTVAEIQALTSQGSSLEETIASLKAEVEGFKQERQAGVSELQEHTTQKAHLGHCPHCPSVCVPVHSEMLLRVQQLVQDLKKLTCQVATLNNNGEEASTEGTCCPVNWVEHQDSCYWFSHSGMSWAEAEKYCQLKNAHLVVINSREEQNFVQKYLGSAYTWMGLSDPEGAWKWVDGTDYATGFQNWKPGQPDDWQGHGLGGGEDCAHFHPDGRWNDDVCQRPYHWVCEAGLGQTSQESH
glycan array binding signal (z-score) (Fuc(a1-2)Gal): 0.04 | glycan array binding signal (z-score) (Fuc(a1-2)Gal(b1-3)GalNAc): -0.483 | glycan array binding signal (z-score) [1]: -0.484 | glycan array binding signal (z-score) [2]: -0.331 | glycan array binding signal (z-score) [3]: -0.076 | glycan array binding signal (z-score) [4]: -0.503 | glycan array binding signal (z-score) [5]: 0.197 | glycan array binding signal (z-score) (Fuc(a1-2)Gal(b1-3)GlcNAc): -0.458 | glycan array binding signal (z-score) [6]: 0.259 | glycan array binding signal (z-score) [7]: -0.314 | glycan array binding signal (z-score) [8]: -0.267 | glycan array binding signal (z-score) [9]: -0.282 | glycan array binding signal (z-score) [10]: -0.493 | glycan array binding signal (z-score) [11]: 0.314 | glycan array binding signal (z-score) [12]: -0.405 | glycan array binding signal (z-score) [13]: -0.46 | glycan array binding signal (z-score) [14]: -0.297 | glycan array binding signal (z-score) [15]: -0.252 | glycan array binding signal (z-score) [16]: -0.191 | glycan array binding signal (z-score) [17]: -0.413 | glycan array binding signal (z-score) [18]: -0.725 | glycan array binding signal (z-score) [19]: 0.33 | glycan array binding signal (z-score) (Fuc(a1-2)Gal(b1-4)Glc): -1.02 | glycan array binding signal (z-score) (Fuc(a1-2)Gal(b1-4)Glc6S): -0.396 | glycan array binding signal (z-score) (Fuc(a1-2)Gal(b1-4)GlcNAc): -0.198 | glycan array binding signal (z-score) [20]: 0.054 | glycan array binding signal (z-score) [21]: -0.539 | glycan array binding signal (z-score) [22]: -0.017 | glycan array binding signal (z-score) [23]: -0.521 | glycan array binding signal (z-score) [24]: -0.787
